Reference: the supplement of paper PMC3334620
Whole data set: some 33,000 sequences, median “E-score (-0.5 to 0.5)” near -0.036, cut for the highest 2% near 0.37. The list shows a part of the results.

Target: T1, Yer064c (UniProt P40041)
T1 sequence: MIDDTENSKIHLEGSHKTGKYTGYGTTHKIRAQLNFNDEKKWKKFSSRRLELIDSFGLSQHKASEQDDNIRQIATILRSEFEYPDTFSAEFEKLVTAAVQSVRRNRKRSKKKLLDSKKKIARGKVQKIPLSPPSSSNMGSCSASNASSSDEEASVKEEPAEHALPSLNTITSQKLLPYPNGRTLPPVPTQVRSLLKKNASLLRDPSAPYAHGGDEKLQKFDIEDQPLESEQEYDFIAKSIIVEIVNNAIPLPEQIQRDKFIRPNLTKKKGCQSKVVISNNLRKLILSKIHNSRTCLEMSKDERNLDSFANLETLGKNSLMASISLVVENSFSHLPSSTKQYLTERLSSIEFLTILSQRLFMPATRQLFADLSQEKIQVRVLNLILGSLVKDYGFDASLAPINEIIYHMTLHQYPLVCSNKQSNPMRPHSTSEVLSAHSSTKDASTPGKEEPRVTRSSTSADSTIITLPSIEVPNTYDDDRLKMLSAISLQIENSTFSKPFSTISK
Test: PBM E-score (8-mer binding enrichment) (E-score (-0.5 to 0.5)); higher = stronger / more preferred TF binding; most listed sequences are background and not binding sites
Conditions: protein concentration: 200 nM; construct: GST-full length
Summary of the method: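 Yeast transcription factors, full-length or as DNA-binding domains, were expressed with a GST tag using PURExpress in vitro transcription/translation. At about 100-200 nM they were applied to universal all-10-mer Agilent arrays, double-stranded by primer extension on fresh or once-stripped slides. Fluorescent anti-GST detected bound protein, and masliner normalised the scans. E-scores for ungapped eight-base words, pooled with reverse complements, came from the Universal PBM Analysis Suite.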

Sequence	PBM E-score
CTATGCCC	-0.234
ATTACGCA	0.168
AAACTGGG	-0.3
GACCATCC	-0.118
ATTCCATG	-0.0378
CGAGGTCC	-0.259
AAACCTCT	-0.209
GGGTGATA	-0.0177
CTCCTAAG	-0.0146
CCGATAAA	0.0305
CACAGACA	0.028
ATGCATTG	-0.073
AGGGGCCG	-0.045
CAGATGGA	-0.152
CGCGATAA	0.0411
ATGAAAAC	0.0395
TGACAGAA	-0.0303
AACAGGTC	-0.00323
ACTACACA	0.284
ATGTCTGC	-0.228
GCACTATA	-0.207
AACGACCC	-0.08
GTCCATTA	0.217
CCCGGAGC	-0.126
TCGCGTCA	0.0267

Sequence	PBM E-score
AAGCCACA	0.0204
CCCACTCC	-0.231
CATCTCCG	-0.0103
GCACACCA	-0.166
ATTCTTCC	-0.102
CCGCCATA	0.0616
CACAGCAC	-0.141
ACAAGTAC	-0.0421
AGGACAAG	-0.135
AATTTTCG	-0.0818
GGCTACAC	0.235
GGATCAAA	0.00661
AGGGAGAG	-0.0408
GACAGGTA	-0.117
AAAGACGA	0.0816
GGATCGCC	-0.209
GAAGGGAC	-0.0755
ATGTTTCA	0.0586
CCGGGACC	-0.114
AAGACCAT	0.109
GAGATCAA	0.0881
CGTATATA	0.0012
CTCACAAG	0.208
CCCCGAAG	-0.00793
CCTATAGA	-0.0552

Sequence	PBM E-score
AAGCTGAT	0.142
AGTTCTCC	-0.127
ATCCATGG	0.0496
GCTTGTAA	0.0285
CTAAATCC	0.208
CGGGATTC	0.199
AACGCTAA	0.095
CTTTGGTC	0.0794
AGGTAGGC	-0.231
AGCACTAA	0.0227
CACGTCGA	-0.057
CATTGAGG	-0.285
CCTTGGTA	0.00702
GCTGAACC	0.0762
AAGATTCC	0.181
ATGAAATC	0.145
GGAGTACC	0.0469
ACACCCGA	-0.0679
CGTGTATC	-0.0178
CCAATGAA	-0.158
CCCCCTAC	-0.182
ATATAGTC	0.403
ACCACTGA	0.0922
GGAACCGA	-0.232
AGTATATG	-0.0601

Sequence	PBM E-score
CATTGACA	-0.0863
AGGGCGTG	-0.261
CGCCCGGC	-0.0174
CCCTCGTA	-0.256
AACGCCAT	-0.252
CCAACGCG	-0.177
ATGACCAT	0.192
AACGACGT	-0.16
CTGCATGA	0.176
CACGAAGG	-0.124
CCCCTAAC	-0.255
CCCGGCGA	-0.17
CATCACAG	-0.14
CTATCTTC	0.0749
ACGCGAGA	0.0886
GCAAACGA	0.0382
AGGACTAT	0.31
GAAGCGGA	-0.189
GAGCAAAC	0.00217
AAGTTTTA	0.068
GTTCGAAA	0.0265
ATAGGTTC	-0.0381
AACCCCCT	-0.239
CTTATGAA	0.107
TACAGTAA	0.128

Sequence	PBM E-score
CGTTATCA	-0.0521
ATTACATG	0.151
ATGACGGG	0.0379
CATGGAAG	-0.0616
AAAGTAGC	-0.0562
AAGCAATC	0.0621
ACTCTGTA	0.0381
GTGGGGTA	-0.0915
AGAACTCC	-0.157
GAGGTTGC	-0.251
AACATGAA	-0.0474
TGTTCGAA	-0.0433
ACTCGTTG	0.204
GAAATCGA	0.0926
CCCTTCGA	-0.181
AGCTTCAA	-0.202
AGAATCCT	-0.0297
TAGTGTCA	0.147
ATTTTAAC	-0.0572
ATTCACCC	0.0614
AAGACAGC	-0.197
TCCCGGAA	-0.0771
GGAATTAC	-0.0663
CGAGAGAA	-0.0426
CTCGTTTC	0.0183

Sequence	PBM E-score
CGAGGCAC	-0.124
CCGTAATA	0.0217
TACGTTGA	0.11
AATAGGAT	0.0023
CGCTCTCA	-0.0828
AATGTGGA	-0.0311
CATTCAGG	-0.0478
ACAGGCAA	-0.167
GACGGGTA	0.007
CATAGGGC	-0.242
ATTGCCAA	-0.159
ATATGATC	0.165
AGAGCGGC	-0.239
GCCAAAGA	-0.0953
GTGAAGCA	-0.132
GAATGCGC	-0.204
CGGTGTGA	0.174
CCTGGGGA	-0.219
ACCGATGC	-0.217
CAAGAGCG	-0.0975
GTAGACAC	0.0309
CAGGTAAA	-0.0589
CACACCGA	0.0976
GGTTGACA	0.0178
ACATAACT	0.117

Sequence	PBM E-score
AAGAAAGG	-0.171
AGCTTCAG	-0.0949
AGAAAATG	-0.00161
GCTGAGCC	0.0663
CATGCGAG	0.0956
ATCGAAGC	-0.295
ACAGGGAT	-0.0572
ACCAACCA	-0.143
CGTCGTTC	-0.0954
CAGGGACC	-0.191
AGCCCCAT	-0.172
CCATGGGA	-0.19
CTTCCGTC	-0.123
CCTGGGTA	-0.0946
CATGAGAA	0.00801
AAAACCCT	-0.047
CCATTCAC	0.031
CCGGGGCA	-0.0809
GGGCCGAC	0.104
CCCATTAC	0.0439
CGTTTACA	-0.164
CCATCTAG	-0.0675
GCTGCTAC	-0.0263
GATACTGA	0.0925
CTTGCTAA	-0.13

Sequence	PBM E-score
ACTCGGCG	0.15
ACCAAGAT	-0.16
AGTGAAGG	0.149
ACCGTATG	-0.0534
CCACCAAA	-0.117
GATGGGCA	0.00841
ACAGTCCA	0.14
TAATGCTA	0.15
CAAGTCAA	0.196
GGTTCCTA	-0.0216
ACAAGAGG	-0.124
AGCTTGAG	0.00041
CCGCGGCA	-0.183
CAACCATG	0.0873
GTGGCTCA	0.33
ATCTCCAG	0.0544
ATCTGTGA	0.0846
CGTATGAG	0.18
AAAGCACC	-0.337
AAAATCTG	-0.0593
TAGTAGCA	-0.207
CGCTTCCC	-0.239
CGTAAGGA	-0.0707
AGTTCCAG	-0.286
AGAGTTCG	0.14

Sequence	PBM E-score
GTGACGTA	-0.0328
CCTCTCCC	-0.162
ATCGATGA	0.274
AGTGCCGC	-0.214
CCAGTCGC	-0.0128
ACCTACGA	-0.0247
CCTCAGAA	-0.0751
CACTGATA	0.049
CAGGCCTA	-0.13
GATGGGAA	-0.279
CCTGAAGG	-0.149
GCACAAAC	-0.00349
CCCCAACA	-0.212
AGGTTAAG	0.0497
CGCCCCGA	-0.0409
CTAGCGAA	0.173
AGATGAAA	-0.0202
CGGCCTAA	-0.0551
CGGTAACG	-0.017
GGCGAGCC	-0.22
CAGACGCA	-0.205
CATCGATC	0.0781
CGGTGGTC	-0.218
AGCCAGGA	0.00892
ACATTCAT	0.0768

Sequence	PBM E-score
TCAAACCA	0.17
CACTCTAC	0.0903
ACCAGCAG	-0.103
ATCGGGCA	-0.13
TGCAACAA	0.0339
GGCTCACC	0.116
GTATTAGA	-0.0144
GCGGAGCC	-0.14
ATAAGATG	0.0671
CATATGTC	-0.00205
ATACCACC	-0.108
CATGCTAG	-0.159
GGTTCTAC	-0.178
CTTGCTCC	0.0348
GTCGACTA	0.335
CTCTATCC	-0.267
GCTCAAAA	0.116
AATTCAAG	0.0474
ACTTGGGA	-0.0214
TTATTAAA	0.138
CTCATGCA	0.113
GGCATGCC	-0.277
AGATTCGA	0.112
AAAGACCT	-0.0342
GATTGATA	0.261

Sequence	PBM E-score
ATTTTCTC	-0.00289
AGTAGCCA	0.242
CTGATAGA	0.116
CATGCTGC	-0.0684
CCCTTATA	-0.188
AAGGAAAG	-0.207
AACGGGGC	-0.124
CTCAAGTC	0.271
AAACGCCA	-0.05
AATATGGT	0.00839
ATAGGACC	-0.281
AACGTCAA	-0.02
CTTGTGAA	-0.0204
AAGGTGCA	-0.182
CGTAGTCC	0.262
GATTCATA	0.381
CAAAGAGG	-0.178
CTAGGAGC	-0.0611
CAATAGCC	-0.0998
AATCGACT	0.258
CCTAGCAA	-0.175
ACGTGACT	0.468
CCTCGCTC	-0.111
TGGTTCAA	0.265
GACACGAC	0.208

Sequence	PBM E-score
AATGACTA	0.487
AAGATGAT	0.348
CGACCGCA	-0.352
AGCTGTAG	0.0475
ATGTGGGG	-0.163
GCCCCCAA	-0.254
ACATTGGT	-0.152
GGTAGAAC	-0.205
GAGGTGGC	-0.0588
ACTATAAG	0.213
TGGATTAA	0.172
GGCTTGCA	-0.0945
CGCTGACA	-0.082
CTCCCGTA	-0.0922
AGCCGAAA	0.0999
GTGCTAAC	-0.0654
AATTTACC	-0.11
ATCATATA	0.195
CCACAATC	0.163
CTCCTATA	-0.06
TAAGGACA	-0.11
GCACTTAC	-0.222
GAACTGAA	-0.0409
AGTCCGGC	0.191
CGTGCCTC	0.0173

Sequence	PBM E-score
CAGGAAGA	-0.0436
ACGTCTGA	0.0833
ACATAGAG	-0.0729
ACGGACCA	-0.125
CTGACACC	0.0472
ACAATGCT	-0.0617
AGTCTACG	0.0206
CAGGGTAG	-0.107
AGCAACAC	-0.0475
GGTCCACC	-0.266
GTCCAGAC	-0.116
AGCTATCA	-0.0169
GCTACTGA	0.18
CAGTGACC	-0.00082
CCTGCAAA	-0.134
GAAAGAAA	-0.0206
GTAGGGTA	-0.0234
AACGGTAA	0.0279
ACTCCCGA	0.22
TACAAGAA	0.0444
GTAAGCAC	-0.0905
CCGGGCTA	-0.0362
CTAGTCAC	0.461
GTTGACAA	-0.00857
CACAGGTG	0.0776

Sequence	PBM E-score
CTGCCCAA	-0.185
AACTACCC	-0.158
ATACGTGC	-0.121
AAGGTAGA	-0.209
AGATTTAA	0.2
AATCGTAG	0.205
CGTCCCAC	-0.266
ACACGCGC	0.144
CTAAGGCA	0.0444
GAGTTGCA	-0.00197
CTCGAATA	-0.0731
ATGCACCG	-0.173
AAAGAATT	-0.0489
CCGCACAA	-0.122
CTGCCATC	-0.212
AAGTGGTC	-0.0366
GAGGTACC	-0.107
ACCCGCTA	-0.134
CGACACCC	-0.0371
